This series deals with the molecule itself. Briefly: qPAINT (quantitative DNA-PAINT single-molecule super-resolution microscopy); fixed, permeabilised AsPC-1 cells labelled with DNA-coupled anti-P2Y2 antibody; TIRF; DBSCAN clusters of localisations, copy number per cluster from dark times (qi1 0.012 Hz); control cells, cells treated with 100 uM ATP (agonist) or 5 uM AR-C 118925XX (antagonist) for 1 h.

In general, stoichiometry N refers to a count of units in the complex or per binding partner.

B1: purinergic receptor Y2 (P2Y2) (receptor, human (endogenous in AsPC-1), UniProt P41231 1-377, looked up)
chain: MAADLGPWNDTINGTWDGDELGYRCRFNEDFKYVLLPVSYGVVCVPGLCLNAVALYIFLCRLKTWNASTTYMFHLAVSDALYAASLPLLVYYYARGDHWPFSTVLCKLVRFLFYTNLYCSILFLTCISVHRCLGVLRPLRSLRWGRARYARRVAGAVWVLVLACQAPVLYFVTTSARGGRVTCHDTSAPELFSRFVAYSSVMLGLLFAVPFAVILVCYVLMARRLLKPAYGTSGGLPRAKRKSVRTIAVVLAVFALCFLPFHVTRTLYYSFRSLDLSCHTLNAINMAYKVTRPLASANSCLDPVLYFLAGQRLVRFARDAKPPTGPSPATPARRRLGLRRSDRTDMQRIEDVLGSSEDSRRTESTPAGSENTKDIRL
notes: purinergic receptor Y2 (P2Y2), a rhodopsin-like GPCR, endogenously expressed in the pancreatic cancer cell line AsPC-1; Detected in fixed cells with a DNA-labelled anti-P2Y2 antibody (APR-010, Alomone labs), which is only a tool of the experiment; also called P2Y2 receptor; source: endogenous, AsPC-1 cells (fixed, permeabilised)
Consider B1, for which the “stoichiometry N” value was not below 3.

These data come from paper PMC8533726, “Quantitative Super-Resolution Imaging for the Analysis of GPCR Oligomerization” (Biomolecules, 2021).
